# These are yes or no findings as the source states them, for the method shown. For some assays here: Binding seen in cells or lysates may run through a third protein. Some binding calls cover weakened binding; strength is not graded here.
# Protein sequences, listed by entry. Tags and fused reporters are not part of them. Lines headed by an entry give the natural chain unless they say otherwise; changes in a name come on top. Chains listed by the source or under a name are the forms on record and can include a tag or linker. Residues count along the entry.
# UniProt P14618: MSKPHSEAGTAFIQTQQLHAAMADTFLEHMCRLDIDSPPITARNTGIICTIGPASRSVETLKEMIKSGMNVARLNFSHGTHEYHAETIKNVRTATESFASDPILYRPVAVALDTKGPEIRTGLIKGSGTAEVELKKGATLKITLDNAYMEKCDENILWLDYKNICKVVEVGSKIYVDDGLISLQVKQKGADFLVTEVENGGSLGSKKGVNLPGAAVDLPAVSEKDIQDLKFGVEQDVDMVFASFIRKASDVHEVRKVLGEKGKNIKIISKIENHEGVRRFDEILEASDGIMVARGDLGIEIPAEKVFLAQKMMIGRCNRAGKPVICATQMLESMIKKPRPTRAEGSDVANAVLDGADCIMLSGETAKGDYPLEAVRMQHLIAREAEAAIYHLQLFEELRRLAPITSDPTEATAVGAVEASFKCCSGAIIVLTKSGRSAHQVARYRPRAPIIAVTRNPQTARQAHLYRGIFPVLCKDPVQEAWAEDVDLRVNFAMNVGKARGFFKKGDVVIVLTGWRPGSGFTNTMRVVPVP
# GST-PKM2(1-218): residues 1-218 of P14618
# GST-PKM2(1-43): residues 1-43 of P14618
# GST-PKM2(44-116): residues 44-116 of P14618
# GST-PKM2(117-218): residues 117-218 of P14618
# GST-PKM2(219-389): residues 219-389 of P14618
# GST-PKM2(390-531): residues 390-531 of P14618
# GST-PKM2(390–531/C474A) (P14618, form named): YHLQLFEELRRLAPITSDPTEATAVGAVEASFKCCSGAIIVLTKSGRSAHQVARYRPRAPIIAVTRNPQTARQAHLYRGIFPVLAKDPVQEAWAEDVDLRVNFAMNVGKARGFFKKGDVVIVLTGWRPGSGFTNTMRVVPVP
# GST-PKM2(390-531/K433E) (P14618, form named): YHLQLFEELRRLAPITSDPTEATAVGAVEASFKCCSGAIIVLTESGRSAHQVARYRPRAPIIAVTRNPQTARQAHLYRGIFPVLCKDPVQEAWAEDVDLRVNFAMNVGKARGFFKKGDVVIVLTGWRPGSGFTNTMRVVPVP
# GST-PKM2(390–531) C424A (P14618, form named): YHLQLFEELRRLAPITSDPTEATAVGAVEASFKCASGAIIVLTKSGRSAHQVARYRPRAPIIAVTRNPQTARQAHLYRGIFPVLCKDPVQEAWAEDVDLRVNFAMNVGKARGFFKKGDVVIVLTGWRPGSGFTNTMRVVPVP
# GST-PKM2(117-218) C152A (P14618, form named): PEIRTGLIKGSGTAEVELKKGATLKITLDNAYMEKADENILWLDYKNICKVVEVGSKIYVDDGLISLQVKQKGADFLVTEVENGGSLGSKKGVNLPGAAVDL
# GST-PKM2(117-218) C165A (P14618, form named): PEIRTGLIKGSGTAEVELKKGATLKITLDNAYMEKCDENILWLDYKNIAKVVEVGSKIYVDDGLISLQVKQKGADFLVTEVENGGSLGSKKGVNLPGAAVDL
# GST-PKM2(390–531) C423A (P14618, form named): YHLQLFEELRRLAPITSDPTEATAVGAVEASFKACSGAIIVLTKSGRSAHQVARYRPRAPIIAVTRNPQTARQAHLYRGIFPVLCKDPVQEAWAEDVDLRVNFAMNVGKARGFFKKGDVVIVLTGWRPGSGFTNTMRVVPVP
# UniProt P15941, residues 1182-1255: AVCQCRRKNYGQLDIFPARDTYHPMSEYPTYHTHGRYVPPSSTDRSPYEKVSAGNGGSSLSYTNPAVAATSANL
# What was measured:
# GST-PKM2(1-218) (human) = GST-PKM2(1-218) (human) (UniProt P14618); assay: pull-down; MUC1-CD proteins (EGFR-phosphorylated or not) incubated with GST and GST-PKM2 deletion or point mutants; adsorbates to glutathione beads blotted with anti-MUC1-C; both purified
# [1] = target: GST-PKM2(390-531) (human) (UniProt P14618); assay: as above
# [2] = target: GST-PKM2(390–531/C474A) (human) (UniProt P14618); assay: as above
# [3] = target: GST-PKM2(390-531/K433E) (human) (UniProt P14618); assay: as above
# [4] = target: GST-PKM2(390–531) C424A (human) (UniProt P14618); assay: as above
# [5] = target: GST-PKM2(117-218) (human) (UniProt P14618); assay: as above
# [6] = target: GST-PKM2(117-218) C152A (human) (UniProt P14618); assay: as above
# [7] = target: GST-PKM2(117-218) C165A (human) (UniProt P14618); assay: as above
# GST-PKM2(44-116) (human) = GST-PKM2(44-116) (human) (UniProt P14618); assay: as above
# [8] = target: GST-PKM2(219-389) (human) (UniProt P14618); assay: as above
# GST-PKM2(1-43) (human) = GST-PKM2(1-43) (human) (UniProt P14618); assay: as above
# [9] = target: GST-PKM2(390–531) C423A (human) (UniProt P14618); assay: as above
# GST-MUC1-CD (human) [10] = target: GST-MUC1-CD (human) (UniProt P15941); assay: pull-down; ZR-75-1 cell lysates incubated with GST, GST-MUC1-CD and GST-MUC1-CD deletion mutants; adsorbates blotted with anti-PKM2; only the target purified
# GST-MUC1-CD (human) [11] = target: GST-MUC1-CD (human) (UniProt P15941); assay: pull-down; purified recombinant His-tagged PKM2 incubated with GST, GST-MUC1-CD proteins (deletion and Cys mutants, EGFR-phosphorylated or not) on glutathione beads; adsorbates blotted; both purified
substance,measurement,setting,value
EGFR-phosphorylated MUC1-CD (p-MUC1-CD) (from UniProt P15941 1182-1255) (domain or fragment),binding,GST-PKM2(1-218) (human),binds
same,binding,[1],binds
same,binding,[2],binds
same,binding,[3],binds
"MUC1-CD (soluble, incubated with GST-PKM2 proteins) (from UniProt P15941 1182-1255) (domain or fragment)",binding,[4],binds
same,binding,[5],binds
same,binding,GST-PKM2(1-218) (human),binds
same,binding,[6],binds
same,binding,[1],binds
same,binding,[7],no binding
same,binding,GST-PKM2(44-116) (human),no binding
same,binding,[2],binds
same,binding,[8],no binding
same,binding,GST-PKM2(1-43) (human),no binding
same,binding,[9],binds
"pyruvate kinase M2 (PKM2), endogenous in ZR-75-1 cells (from UniProt P14618 1-531)",binding,GST-MUC1-CD (human) [10],binds
recombinant His-tagged PKM2 (from UniProt P14618 1-531),binding,GST-MUC1-CD (human) [11],binds

# — publication PMC3225393
